# Experimental data: the supplement of paper PMC9174493
# This is one part of the list. Single values of this set are uncertain. Values with irradiation are relative to irradiated vehicle.
# System: A549-Dual
# Experiment: ISRE reporter (Lucia luciferase) activity, viability-corrected, relative to vehicle (fold change vs vehicle); higher = more activation of STING-IRF / NF-kB immune response reporter
# Details: 3 µM; irradiation: 8 Gy/4 fr
row,Structure (SMILES),ISRE reporter
1,COc1cc2nccc(Oc3ccc(NC(=O)Nc4cc(C)on4)c(Cl)c3)c2cc1OC [Tivozanib (AV-951)],0.285
2,Oc1ccc(/C=C/c2cc(O)cc(O)c2)cc1 [Resveratrol],0.844
3,Nc1cccc2c1C(=O)N(C1CCC(=O)NC1=O)C2=O (centres undefined) [Pomalidomide],1
4,COc1cc(C2c3cc4c(cc3C(OC3OC5COC(c6cccs6)OC5C(O)C3O)C3COC(=O)C23)OCO4)cc(OC)c1O (centres undefined) [Teniposide],0.317
5,S=c1nc[nH]c2nc[nH]c12 [Mercaptopurine (6-MP)],0.69
6,CC(C(=O)O)c1ccc2c(c1)CC(=O)c1ccccc1S2 (centres undefined) [Zaltoprofen],0.884
7,Cc1nc(Nc2ncc(C(=O)Nc3c(C)cccc3Cl)s2)cc(N2CCN(CCO)CC2)n1.Cl [Dasatinib hydrochloride],0.176
8,"O=c1[nH]cc(F)c(=O)[nH]1 [Fluorouracil (5-Fluoracil, 5-FU)]",0.906
9,COc1cc(/C=C/C(=O)/C=C(O)/C=C/c2ccc(O)c(OC)c2)ccc1O [Curcumin],0.8

# Same assay, conditions: 3 µM; irradiation: none
row,Structure (SMILES),ISRE reporter
1,CC1=C(CC(=O)O)c2cc(F)ccc2/C1=C\c1ccc(S(C)=O)cc1 (centres undefined) [Sulindac],0.66
2,C1N2CN3CN1CN(C2)C3 [Methenamine],1.02
3,COc1ccc2cc(C(C)C(=O)[O-])ccc2c1.[Na+] (centres undefined) [Naproxen Sodium],0.985
4,Cc1ccc(Cl)c(Nc2ccccc2C(=O)[O][Na])c1Cl [Meclofenamate Sodium],1.08
5,O=C(OCCOCCO)c1ccccc1Nc1cccc(C(F)(F)F)c1 [Etofenamate],0.789
6,O=C([O-])c1cc(N=Nc2ccc(O)c(C(=O)[O-])c2)ccc1O.[Na+].[Na+] [Olsalazine Sodium],0.975
7,CC(=O)Nc1ccc(OC(=O)c2ccccc2OC(C)=O)cc1 [Benorylate],0.984
8,CO/N=C(\C(=O)NC1C(=O)N2C(C(=O)OCOC(=O)C(C)(C)C)=C(C)CSC12)c1csc(N)n1.Cl (centres undefined) [Cefetamet pivoxil hydrochloride],0.858
9,CCC(C(=O)O)c1ccc(N2Cc3ccccc3C2=O)cc1 (centres undefined) [Indobufen],0.884
10,CS(=O)(=O)O.Cc1ccc(NC(=O)c2ccc(CN3CCN(C)CC3)cc2)cc1Nc1nccc(-c2cccnc2)n1 [Imatinib Mesylate (STI571)],1.02
11,CC(C(=O)O)c1ccc(C(=O)c2ccccc2)s1 (centres undefined) [Tiaprofenic acid],1.11
12,CCc1nc(N)nc(N)c1-c1ccc(Cl)cc1 [Pyrimethamine],0.807
13,COc1cc(C2c3cc4c(cc3C(OC3OC5COC(C)OC5C(O)C3O)C3COC(=O)C23)OCO4)cc(OC)c1O (centres undefined) [Etoposide],2.55
14,CN(C)CCC(c1ccc(Br)cc1)c1ccccn1.O=C(O)/C=C\C(=O)O (centres undefined) [Brompheniramine hydrogen maleate],1.24
15,CC12CCC3c4ccc(O)cc4CC(CCCCCCCCCS(=O)CCCC(F)(F)C(F)(F)F)C3C1CCC2O (centres undefined) [Fulvestrant],1.11
16,O=C([O-])CC(O)(CC(=O)[O-])C(=O)[O-].O=C([O-])CC(O)(CC(=O)[O-])C(=O)[O-].[BiH6+3].[K+].[K+].[K+] [Gastrodenol],1.13
17,CCCCC1(COC(=O)CCC(=O)O)C(=O)N(c2ccccc2)N(c2ccccc2)C1=O [Suxibuzone],1.09
18,O=C(O)Cc1ccccc1Nc1c(Cl)cccc1Cl.OCCN1CCCC1 [Diclofenac Epolamine],0.782
19,Cl.N=C1CCCN1Cc1[nH]c(=O)[nH]c(=O)c1Cl.O=c1[nH]c(=O)n(C2CC(O)C(CO)O2)cc1C(F)(F)F.O=c1[nH]c(=O)n(C2CC(O)C(CO)O2)cc1C(F)(F)F (centres undefined),2.08
20,NC(CO)(CO)CO [Trometamol],0.906

row,Structure (SMILES),ISRE reporter
1,COc1ccc2c(c1)c(CC(=O)O)c(C)n2C(=O)c1ccc(Cl)cc1 [Indomethacin],0.976
2,Cn1cnc([N+](=O)[O-])c1Sc1ncnc2nc[nH]c12 [Azathioprine],0.758
3,NCCNc1ccc(NCCN)c2c1C(=O)c1ccncc1C2=O.O=C(O)/C=C\C(=O)O.O=C(O)/C=C\C(=O)O [Pixantrone Maleate],3.05
4,CC(=O)Oc1cccc2c1C(=O)c1c(OC(C)=O)cc(C(=O)O)cc1C2=O [Diacerein],0.834
5,CNCC(O)c1ccc(O)c(O)c1.O=C(O)C(O)C(O)C(=O)O (centres undefined) [Epinephrine bitartrate],1.23
6,CC1(C(=O)O)CCC2(C)CCC3(C)C(=CC(=O)C4C5(C)CCC(OC6OC(C(=O)O)C(O)C(O)C6OC6OC(C(=O)O)C(O)C(O)C6O)C(C)(C)C5CCC43C)C2C1.N.N (centres undefined) [Diammonium Glycyrrhizinate],1.01
7,CCCCCCCCCCCCCCCCCCOP(=O)([O-])OC1CC[N+](C)(C)CC1 [Perifosine (KRX-0401)],0.975
8,COc1c2occc2cc2ccc(=O)oc12 [Methoxsalen],0.867
9,O=C(O)CCCN1CCC(OC(c2ccc(Cl)cc2)c2ccccn2)CC1 (centres undefined) [Bepotastine],0.943
10,CN(C)CCCOc1nn(Cc2ccccc2)c2ccccc12.Cl [Benzydamine HCl],0.963
11,CC(C(=O)O)c1ccc2c(c1)[nH]c1ccc(Cl)cc12 (centres undefined) [Carprofen],0.791
12,COc1cc2nccc(Oc3ccc(NC(=O)Nc4cc(C)on4)c(Cl)c3)c2cc1OC [Tivozanib (AV-951)],1.03
13,Oc1ccc(/C=C/c2cc(O)cc(O)c2)cc1 [Resveratrol],0.982
14,Nc1cccc2c1C(=O)N(C1CCC(=O)NC1=O)C2=O (centres undefined) [Pomalidomide],0.767
15,COc1cc(C2c3cc4c(cc3C(OC3OC5COC(c6cccs6)OC5C(O)C3O)C3COC(=O)C23)OCO4)cc(OC)c1O (centres undefined) [Teniposide],1.8
16,S=c1nc[nH]c2nc[nH]c12 [Mercaptopurine (6-MP)],0.719
17,CC(C(=O)O)c1ccc2c(c1)CC(=O)c1ccccc1S2 (centres undefined) [Zaltoprofen],1.09
18,Cc1nc(Nc2ncc(C(=O)Nc3c(C)cccc3Cl)s2)cc(N2CCN(CCO)CC2)n1.Cl [Dasatinib hydrochloride],0.306
19,"O=c1[nH]cc(F)c(=O)[nH]1 [Fluorouracil (5-Fluoracil, 5-FU)]",1.71
20,COc1cc(/C=C/C(=O)/C=C(O)/C=C/c2ccc(O)c(OC)c2)ccc1O [Curcumin],0.698
